In PMC4336329 (PLoS ONE, 2015):
Screen size: about 310,000 compounds; about 14,000 (4.5%) showed an effect of 50% or more. Effects have a minus sign here. The list shows a part of the results.

The compounds below were run against human ether-à-go-go-related gene (hERG) potassium channel (human, UniProt Q12809) (assay: primary screen, population patch clamp on CHO cells stably expressing hERG).
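Note: peak tail current of the secondary pulse compared with the same well before compound.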

Chain of human ether-à-go-go-related gene (hERG) potassium channel (Q12809 whole entry, looked up): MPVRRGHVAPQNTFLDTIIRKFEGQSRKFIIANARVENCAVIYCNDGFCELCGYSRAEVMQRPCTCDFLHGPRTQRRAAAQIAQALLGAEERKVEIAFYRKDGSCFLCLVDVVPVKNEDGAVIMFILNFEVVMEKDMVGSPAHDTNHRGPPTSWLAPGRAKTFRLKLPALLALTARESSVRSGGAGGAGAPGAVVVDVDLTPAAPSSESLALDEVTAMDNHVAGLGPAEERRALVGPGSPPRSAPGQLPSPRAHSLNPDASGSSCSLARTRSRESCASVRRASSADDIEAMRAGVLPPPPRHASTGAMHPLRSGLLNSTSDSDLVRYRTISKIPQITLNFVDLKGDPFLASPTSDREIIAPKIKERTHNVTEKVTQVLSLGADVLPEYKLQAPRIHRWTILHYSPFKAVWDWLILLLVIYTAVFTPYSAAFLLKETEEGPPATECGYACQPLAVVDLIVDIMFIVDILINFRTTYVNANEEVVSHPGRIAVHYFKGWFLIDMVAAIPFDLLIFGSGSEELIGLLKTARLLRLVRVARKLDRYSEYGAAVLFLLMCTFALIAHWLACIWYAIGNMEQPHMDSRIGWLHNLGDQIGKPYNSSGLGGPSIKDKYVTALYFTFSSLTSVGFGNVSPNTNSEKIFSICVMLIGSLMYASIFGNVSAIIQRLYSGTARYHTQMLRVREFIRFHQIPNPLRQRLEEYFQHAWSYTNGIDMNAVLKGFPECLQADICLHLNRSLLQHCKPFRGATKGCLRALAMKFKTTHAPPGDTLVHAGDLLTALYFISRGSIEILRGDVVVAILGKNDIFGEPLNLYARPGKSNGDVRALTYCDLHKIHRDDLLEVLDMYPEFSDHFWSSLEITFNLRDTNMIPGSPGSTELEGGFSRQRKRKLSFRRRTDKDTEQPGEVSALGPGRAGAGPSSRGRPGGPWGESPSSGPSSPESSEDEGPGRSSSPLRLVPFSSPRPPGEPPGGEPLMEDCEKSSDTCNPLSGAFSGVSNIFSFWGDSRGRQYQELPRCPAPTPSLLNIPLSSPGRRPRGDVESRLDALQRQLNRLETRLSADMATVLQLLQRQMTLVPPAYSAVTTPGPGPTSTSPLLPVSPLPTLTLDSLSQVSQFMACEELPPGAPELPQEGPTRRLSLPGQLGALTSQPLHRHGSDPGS

Row | SMILES | hERG current change (%, negative = inhibition) at 10uM [%]
1 | COc1ccc(NC(=O)CN(C)CC(=O)NC2CCCCC2C)cc1 (stereo not drawn) | 9.72
2 | CC1(C)Cc2c(sc3c2c(N)nc(=S)n3Cc2ccccc2)CO1 | -40.5
3 | O=C(c1ccccc1)c1ccc(CN2C(=O)c3ccccc3C2=O)o1 | -28
4 | CCOc1ccccc1NC(=O)CNS(=O)(=O)c1ccc2nc(C)sc2c1 | 19
5 | O=C(/C=C/c1ccc(Cl)cc1)NCc1cccs1 | -1.13
6 | CCOC(=O)N1CCC(NC(=O)CCc2c(C)nc3c(c(C)nn3C(C)(C)C)c2C)CC1 | -6.5
7 | COc1ccc(CNC(=O)COC(=O)CCC(=O)c2cccs2)cc1 | -16.3
8 | CCn1c(=S)ccc2ccc(OC)cc21 | -0.453
9 | COCc1nnc(NC(=O)c2ccc(S(=O)(=O)N3CCCCCC3)cc2)o1 | -21.2
10 | Fc1ccc2c(c1)C(c1cccnc1)=NNC(c1cccs1)=N2 | -23.1
11 | CCOc1ccc(NC(=S)NCc2cccnc2)cc1 | -7.03
12 | O=C(CC1C(=O)NCCN1Cc1cccc(C(F)(F)F)c1)NCCCOc1cccnc1 (stereo not drawn) | -3.59
13 | CC1CCCC(NC(=O)c2ccc3c(c2)N(Cc2ccccc2)C(=O)CS3=O)C1C (stereo not drawn) | 10.6
14 | O=C(Cc1ccc(Cl)cc1)NCCN1CCN(C(=O)Cc2ccc(Cl)cc2)CC1 | -53.4
15 | CC(C)OCCCNC(=O)c1cc(S(=O)(=O)N2CCc3ccccc32)cn1C | -13.2
16 | CCCCC[n+]1ccn(-c2nc3ccccc3nc2[N-]S(=O)(=O)c2ccc(C)cc2)c1 | -6.35
17 | Nn1cc(-c2ccccc2)nc1SCC(=O)NCC(F)(F)F | 14.7
18 | COc1ccc(-c2csc3nc(-c4ccccc4)oc(=O)c23)cc1OC | 14.3
19 | O=c1cc(CSc2ccc(Cl)cc2)nc(-c2ccncc2)[nH]1 | 1.72
20 | O=C(c1cc2n(n1)C(C(F)(F)F)CC(c1ccco1)N2)N1CCc2ccccc2C1 (stereo not drawn) | -16.6
21 | CN(C(=O)COC(=O)c1cccc(S(=O)(=O)N2CCOCC2)c1)C1CCS(=O)(=O)C1 (stereo not drawn) | 13.7
22 | Cc1ccc(-c2nn(-c3ccccc3)cc2/C=C/C(=O)O)o1 | 6.87
23 | O=C(NCCCN1CCOCC1)c1cnn2c(-c3ccccc3)cc(-c3ccccc3)nc12 | -41.3
24 | CCOC(=O)/C=c1\s/c(=C\c2c(OCC)ccc3ccccc23)c(=O)n1CC(=O)NCC1CCCO1 (stereo not drawn) | 4.96
